Reference: PMC11995724, “Antibiotic target discovery by integrated phenotypic and activity-based profiling of electrophilic fragments” (Cell chemical biology, 2025)
Out of some 3,200 compounds screened, about 75 (2%) showed an effect of 50% or more. Some of the results follow.

The compounds below were run on T1, S. aureus MSSA476. Settings: relative growth, OD600, TSB; 25 µM; inhibitor.
T1 construct: MSSA476
Design: species or system S. aureus MSSA476 (TSB) or V. cholerae SAD30 (LB); 384-well bacterial growth screen at 25 uM, OD600 relative to DMSO control

Compared with CCN(CC)C(=O)/C(C#N)=C/c1cc(O)c(O)c([N+](=O)[O-])c1 [9-B04, (2E)-2-cyano-3-(3,4-dihydroxy-5-nitrophenyl)-N,N-diethylprop-2-enamide], COc1ccc(C=C(C#N)C(=O)Nc2cccc(Cl)c2)cc1 [8-I09, N-(3-chlorophenyl)-2-cyano-3-(4-methoxyphenyl)prop-2-enamide] is higher in “% of control remaining” value: 68.9139% for the first, 124.813% for the second.

Compared with CC(C1CC1)N(CC(F)(F)F)C(=O)CCl (centres unmarked) [5-P08, 2-chloro-N-(1-cyclopropylethyl)-N-(2,2,2-trifluoroethyl)acetamide], O=C(CCl)N(c1ccccc1)C1CCCCC1 [4-L18, 2-chloro-N-cyclohexyl-N-phenylacetamide] is higher in “% of control remaining” value: 100.911% for the first, 109.767% for the second.

Compared with CC(Cl)C(=O)Nc1ccccc1Cl (centres unmarked) [4-D11, 2-chloro-N-(2-chlorophenyl)propanamide], CC(Cl)C(=O)Nc1cc([N+](=O)[O-])ccc1Cl (centres unmarked) [6-I14, 2-chloro-N-(2-chloro-5-nitrophenyl)propanamide] is lower in “% of control remaining” value: 126.536% for the first, 110.634% for the second.

Compared with Cc1cc(C(=O)CCl)c(C)n1-c1ccc(C(C)C)cc1 [10-J12, 2-chloro-1-{2,5-dimethyl-1-[4-(propan-2-yl)phenyl]-1H-pyrrol-3-yl}ethan-1-one], Cc1ccc(C(NC(=O)CCl)c2cccs2)cc1 (centres unmarked) [4-H16, 2-chloro-N-[(4-methylphenyl)(thiophen-2-yl)methyl]acetamide] is higher in “% of control remaining” value: 5.3125% for the first, 122.725% for the second.

Compared with O=C(CCl)N1CCCSc2ccccc21 [4-E16, 2-chloro-1-(2,3,4,5-tetrahydro-1,5-benzothiazepin-5-yl)ethan-1-one], C=CC(=O)NC1CCN(c2ccccc2S(=O)(=O)CC)CC1 [2-M03, N-{1-[2-(ethanesulfonyl)phenyl]piperidin-4-yl}prop-2-enamide] is lower in “% of control remaining” value: 116.627% for the first, 102.35% for the second.

Compared with C=CC(=O)N(C)Cc1cccnc1 [3-L11, N-methyl-N-[(pyridin-3-yl)methyl]prop-2-enamide], C=CC(=O)NCc1ccno1 [1-O07, N-[(1,2-oxazol-5-yl)methyl]prop-2-enamide] is lower in “% of control remaining” value: 110.753% for the first, 97.4066% for the second.

First: CC(Cl)C(=O)NCC1CC(=O)N(c2ccccc2)C1 (centres unmarked) [7-O20, 2-chloro-N-[(5-oxo-1-phenylpyrrolidin-3-yl)methyl]propanamide]
Second: CC(Cl)C(=O)NCc1cccc(Cn2cnc3ccccc32)c1 (centres unmarked) [6-O16, N-({3-[(1H-1,3-benzodiazol-1-yl)methyl]phenyl}methyl)-2-chloropropanamide]
The “% of control remaining” value of the first is higher: 113.658% for the first, 100.39% for the second.

Compared with Cc1cc(C=C(C#N)C(=O)Nc2cnn(C)c2)c(C)n1C1CCCCC1 [9-B17, 2-cyano-3-(1-cyclohexyl-2,5-dimethyl-1H-pyrrol-3-yl)-N-(1-methyl-1H-pyrazol-4-yl)prop-2-enamide], Cc1ccc(NC(=O)C2(CNC(=O)C(C)Cl)CCCC2)cc1C (centres unmarked) [7-J13, 1-[(2-chloropropanamido)methyl]-N-(3,4-dimethylphenyl)cyclopentane-1-carboxamide] is lower in “% of control remaining” value: 85.9925% for the first, 77.865% for the second.

First: CCN(C(=O)CCl)c1c(N)n(Cc2ccccc2)c(=O)[nH]c1=O [4-P10, N-(6-amino-1-benzyl-2,4-dioxo-1,2,3,4-tetrahydropyrimidin-5-yl)-2-chloro-N-ethylacetamide]
Second: O=C(CCl)NCCN1C(=O)SC(=Cc2ccccc2F)C1=O [4-A10, 2-chloro-N-(2-{5-[(2-fluorophenyl)methylidene]-2,4-dioxo-1,3-thiazolidin-3-yl}ethyl)acetamide]
The “% of control remaining” value of the first is lower: 99.4759% for the first, 109.004% for the second.

First: CC(C)(C)C1CCc2c(sc(NC(=O)CCl)c2C#N)C1 (centres unmarked) [5-E17, N-(6-tert-butyl-3-cyano-4,5,6,7-tetrahydro-1-benzothiophen-2-yl)-2-chloroacetamide]
Second: COc1ccc(OC)c(NC(=O)CCl)c1 [6-O04, 2-chloro-N-(2,5-dimethoxyphenyl)acetamide]
The “% of control remaining” value of the first is lower: 61.2022% for the first, 99.7073% for the second.

Going from Cc1cccc(C=C(C#N)C(=O)NC(C)c2ccccc2)c1 (centres unmarked) [8-F18, 2-cyano-3-(3-methylphenyl)-N-(1-phenylethyl)prop-2-enamide] to N#CC(=Cc1ccccc1)C(=O)Nc1ccccc1F [8-C13, 2-cyano-N-(2-fluorophenyl)-3-phenylprop-2-enamide], the “% of control remaining” value rises from 93.61% to 103.568%.

First: C=CC(=O)N1CCCC1c1nc(N(C)C)no1 (centres unmarked) [2-C21, 1-{2-[3-(dimethylamino)-1,2,4-oxadiazol-5-yl]pyrrolidin-1-yl}prop-2-en-1-one]
Second: C=CC(=O)N1CCOC(c2noc(C(C)C)n2)C1 (centres unmarked) [1-O05, 1-{2-[5-(propan-2-yl)-1,2,4-oxadiazol-3-yl]morpholin-4-yl}prop-2-en-1-one]
The “% of control remaining” value of the first is higher: 104.439% for the first, 83.6923% for the second.

Going from C=CC(=O)N(CC)CC(=O)N1CC(C)(C)C1c1nccn1C (centres unmarked) [2-J16, N-{2-[3,3-dimethyl-2-(1-methyl-1H-imidazol-2-yl)azetidin-1-yl]-2-oxoethyl}-N-ethylprop-2-enamide] to C=CC(=O)N(C)CC(=O)NC(C)(C)c1nc(C)cs1 [3-E14, N-methyl-N-({[2-(4-methyl-1,3-thiazol-2-yl)propan-2-yl]carbamoyl}methyl)prop-2-enamide], the “% of control remaining” value falls from 140.296% to 93.6874%.

Compared with C=CC(=O)N1CCC(c2noc3cc(F)ccc23)CC1 [3-I07, 1-[4-(6-fluoro-1,2-benzoxazol-3-yl)piperidin-1-yl]prop-2-en-1-one], C=CC(=O)NCCC(=O)N1CCCN(C(=O)c2ccccc2F)CC1 [2-D20, N-{3-[4-(2-fluorobenzoyl)-1,4-diazepan-1-yl]-3-oxopropyl}prop-2-enamide] is higher in “% of control remaining” value: 95.4288% for the first, 118.364% for the second.

Going from CC(Cl)C(=O)NCCC1(C)OCCO1 (centres unmarked) [7-E17, 2-chloro-N-[2-(2-methyl-1,3-dioxolan-2-yl)ethyl]propanamide] to CC(Cl)C(=O)NC(=O)Nc1ccc2c(c1)OCCO2 (centres unmarked) [5-D08, 3-(2-chloropropanoyl)-1-(2,3-dihydro-1,4-benzodioxin-6-yl)urea], the “% of control remaining” value falls from 108.634% to 103.097%.

First: COc1c(C)cnc(CN2CCC(N(C)C(=O)C(C)Cl)CC2)c1C (centres unmarked) [6-A04, 2-chloro-N-{1-[(4-methoxy-3,5-dimethylpyridin-2-yl)methyl]piperidin-4-yl}-N-methylpropanamide]
Second: CC(Cl)C(=O)N1CCCC(n2ncc(N(C)C(C)C)cc2=O)C1 (centres unmarked) [6-H09, 2-[1-(2-chloropropanoyl)piperidin-3-yl]-5-[methyl(propan-2-yl)amino]-2,3-dihydropyridazin-3-one]
The “% of control remaining” value of the first is higher: 103.122% for the first, 93.9024% for the second.

Going from O=C(CCl)Nc1ccc(OC(F)F)c(Cl)c1 [4-F14, 2-chloro-N-[3-chloro-4-(difluoromethoxy)phenyl]acetamide] to N#CC(C(=O)CCl)=C1Nc2cc(Cl)ccc2S1 [10-O08, 4-chloro-2-(5-chloro-2,3-dihydro-1,3-benzothiazol-2-ylidene)-3-oxobutanenitrile], the “% of control remaining” value falls from 118.533% to 100%.

First: CC1CC(NC(=O)CCl)C(=O)N1c1cnn(C)c1 (centres unmarked) [5-O08, 2-chloro-N-[5-methyl-1-(1-methyl-1H-pyrazol-4-yl)-2-oxopyrrolidin-3-yl]acetamide]
Second: C=CC(=O)N[C@H]1C[C@H](C)S(=O)(=O)c2sccc21 [3-C14, N-[(2S,4S)-2-methyl-1,1-dioxo-2H,3H,4H-1lambda6-thieno[2,3-b]thiopyran-4-yl]prop-2-enamide]
The “% of control remaining” value of the first is higher: 114.39% for the first, 113.539% for the second.

Going from C=CC(=O)Nc1ccc(S(=O)(=O)N(C)C)c(C)c1 [2-E06, N-[4-(dimethylsulfamoyl)-3-methylphenyl]prop-2-enamide] to Cc1cc(C(=O)CCl)c(C)s1 [10-K16, 2-chloro-1-(2,5-dimethylthiophen-3-yl)ethan-1-one], the “% of control remaining” value rises from 97.8242% to 117.813%.

Going from O=C(CCl)N1CCN(S(=O)(=O)c2cccc([N+](=O)[O-])c2)CC1 [4-C19, 2-chloro-1-[4-(3-nitrobenzenesulfonyl)piperazin-1-yl]ethan-1-one] to COc1ccc2c(c1)OCCN(C(=O)C(C)Cl)C2 (centres unmarked) [7-E04, 2-chloro-1-(8-methoxy-2,3,4,5-tetrahydro-1,4-benzoxazepin-4-yl)propan-1-one], the “% of control remaining” value falls from 120.819% to 100.157%.

Compared with C=CC(=O)NC1CCCN(c2cc(N3CCOCC3)ncn2)C1 (centres unmarked) [1-A08, N-{1-[6-(morpholin-4-yl)pyrimidin-4-yl]piperidin-3-yl}prop-2-enamide], CC(Cl)C(=O)NC1CCCN(S(=O)(=O)N2CCOCC2)C1 (centres unmarked) [6-L03, 2-chloro-N-[1-(morpholine-4-sulfonyl)piperidin-3-yl]propanamide] is lower in “% of control remaining” value: 95.6484% for the first, 89.122% for the second.

Going from CC(Cl)C(=O)NCC(c1ccc(Cl)cc1)n1cccn1 (centres unmarked) [7-J05, 2-chloro-N-[2-(4-chlorophenyl)-2-(1H-pyrazol-1-yl)ethyl]propanamide] to C=CC(=O)NCc1c(Cl)c(C(F)(F)F)nn1C [2-J07, N-{[4-chloro-1-methyl-3-(trifluoromethyl)-1H-pyrazol-5-yl]methyl}prop-2-enamide], the “% of control remaining” value rises from 93.2496% to 121.149%.
